The campaign covered roughly 350,000 compounds. About 9,900 (2.8%) were called active. The shares of active, inactive and inconclusive entries below differ from those in the screen. Calls come from the whole dose curve; as a rule, active = well fitted activation curve with a large enough effect; inconclusive = small, poorly fitted or top-dose-only effect; inactive = no such curve, though single readings can be large or run the other way. No potency is given beside an inconclusive call; the fits are too rough.
Experiment: A quantitative high throughput screen for small molecules that induce DNA re-replication in MCF 10a normal breast cells. For activity, positive = re-replication: % of control where 0% means no effect. Note: nearly all actives have a fitted effect of over 50% in size.
Details: MCF 10A DNA re-replication, Hoechst nuclear intensity, 48 h; activity, positive = re-replication: at 46.1 µM (top of the series)
With `CCCOC(=O)c1ccc2c(c1)C(=O)N(c1ccccc1)C2=O` the Potency was inconclusive [activator, single point]. In the case of `O=C(CN(Cc1ccccc1)S(=O)(=O)c1ccc2c(c1)OCCO2)Nc1ccc2c(c1)OCCO2`, the activity, positive = re-replication is reported as inconclusive: -59.6% [activator]. For `COc1cc(C(=O)OCC(=O)NC2CC2)cc(OC)c1OC`, the Potency was “inactive”. In the case of `FC(F)(F)C(F)(F)C(F)(F)C(F)(F)C(F)(F)C(F)(F)F`, the Potency is reported as “inactive”. With `CN(CC(=O)Nc1ccc(S(=O)(=O)N2CCCC2)cc1)Cc1cccc(Cl)c1Cl` the Potency was inconclusive [activator, single point]. In the case of `O=C(c1cc2nc(-c3ccco3)cc(C(F)(F)F)n2n1)N1CCN(Cc2ccccc2)CC1`, the Potency is reported as inconclusive [activator, single point]. With `Cc1ccc(OCC(=O)NC(=S)Nc2ccc3c4c(cccc24)CC3)cc1` the Potency was inconclusive [activator, full curve, poor fit]. With `CC(=O)N1CCOc2ccc(S(=O)(=O)NCCc3ccc(C)cc3)cc21` the Potency was inconclusive [activator, single point]. In the case of `O=C(Nc1nonc1NC(=O)c1cccs1)c1cccs1`, the activity, positive = re-replication is reported as inactive: 2.58% [at 9.22 µM]. In the case of `COc1ccc(-c2cn3nc(SCC(=O)NCC4CCCO4)ccc3n2)cc1` (stereo unspecified), the Potency is reported as inconclusive [activator, partial curve, poor fit]. In the case of `CC[C@@]12C(=O)N(c3ccc(OC)cc3)C(=O)N1[C@H](c1ccc(Cl)cc1)[C@@H]1C(=O)N(C3CCCCC3)C(=O)[C@@H]12`, the Potency is reported as “inactive”. With `COc1ccc(C(=O)N2CCN(C(=O)C3COc4ccccc4O3)CC2)cc1` (stereo unspecified) the Potency was inconclusive [activator, single point]. For `O=c1c2ccccc2nc(/C=C/c2ccc(O)cc2)n1CCc1ccccc1`, the Potency was active: 23.1 µM. For `COc1c(S(=O)(=O)NCCN2CCOCC2)ccc(Cl)c1Cl`, the Potency was inconclusive [activator, single point]. With `CC1(CCc2ccccc2)NC(=S)N(c2ccc(Cl)cc2)N1` (stereo unspecified) the Potency was “inactive”. In the case of `Clc1ccc(CON/C=N/c2ncnc3sccc23)cc1`, the Potency is reported as inconclusive [activator, partial curve]. In the case of `Cc1cccc(/C=N/Nc2cc(N3CCOCC3)nc(N3CCOCC3)n2)c1`, the Potency is reported as inconclusive [activator, partial curve, poor fit]. In the case of `Cc1c(CCCl)c(Cl)n2c(nc3ccccc32)c1C#N`, the Potency is reported as active: 2.91 µM. In the case of `O=[N+]([O-])c1ccc(CSc2nnc(SCc3ccccc3)s2)cc1`, the Potency is reported as active: 6.51 µM. With `O=C(CSc1ccccn1)Nc1ccc2c(c1)OCCO2` the Potency was inconclusive [activator, single point]. With `Cc1nc(C(=O)Nc2ccccc2)sc1C1(C)CC(c2cccnc2)=NO1` (stereo unspecified) the Potency was “inactive”. With `O=C(/C=C/c1ccc2c(c1)OCO2)Nc1nc(-c2ccc(F)cc2)cs1` the Potency was inconclusive [activator, partial curve]. With `Cc1cc(C(=O)N/N=C/c2ccc3c(c2)OCO3)c2ccccc2n1` the Potency was inconclusive [activator, partial curve]. For `CCOC(=O)/C(=N/Nc1ccc(OC)cc1)N1CCCc2ccccc21`, the Potency was “inactive”. For `COc1ccccc1C(=O)NCC(=O)N/N=C/c1cccc(Cl)c1`, the Potency was “inactive”. For `O=C(CNC(=O)/C(=C/c1ccccc1)NC(=O)c1ccc(Br)cc1)OCc1ccccc1`, the Potency was inconclusive [activator, single point]. With `COc1ccc(Cn2c(N)c(C#N)c3nc4ccccc4nc32)cc1` the Potency was active: 7.31 µM. In the case of `CC1=NN(C(=O)c2ccc(Br)cc2)C(O)(C(F)(F)OC(F)(F)F)C1` (stereo unspecified), the Potency is reported as inconclusive [activator, single point]. For `O=C(Nc1nnc(-c2ccc3c(c2)CCCC3)o1)c1ccc(Cl)cc1Cl`, the Potency was inconclusive [activator, single point]. In the case of `COc1cccc2c1[C@@H]1CN(CCCCn3c(=O)[nH]c4c(sc5ncc(-c6ccccc6)nc54)c3=O)C[C@@H]1CO2`, the Potency is reported as inconclusive [activator, partial curve, poor fit]. For `CCCC(=O)N(CCN1CCOCC1)c1nc2c(C)ccc(C)c2s1`, the Potency was inconclusive [activator, single point]. For `COc1ccc(N2CC(C(=O)N/N=C/c3ccc(C)cc3)CC2=O)cc1` (stereo unspecified), the Potency was active: 2.31 µM. With `O=C1CCN(CCc2ccccc2)CCN1[C@H](COc1ccccc1)c1ccccc1` the Potency was “inactive”. With `O=C(COC(=O)/C=C/c1ccc2ccccc2n1)NNC(=O)c1ccc([N+](=O)[O-])cc1` the Potency was inconclusive [activator, single point]. With `Cc1n[nH]c(=O)nc1N/N=C/c1ccc(O)c([N+](=O)[O-])c1` the Potency was inconclusive [activator, single point]. For `CC(C)CNC(=O)c1ccc(C2SCC(=O)N2Cc2ccccc2)cc1` (stereo unspecified), the Potency was inconclusive [activator, partial curve, poor fit]. With `CCC1CCc2c(c3ccccc3[nH]c2=O)O1` (stereo unspecified) the Potency was “inactive”. For `O=C(c1cnccn1)N(Cc1cccs1)C1(C(=O)NC2CCCCC2)CCCCC1`, the Potency was inconclusive [activator, single point]. For `Cc1nc([N+](=O)[O-])c(Br)n1CC(=O)c1cccc([N+](=O)[O-])c1`, the Potency was active: 20.6 µM. For `CCN(CC)S(=O)(=O)c1ccc2[nH]c(=O)cc(C(=O)Nc3ccccc3N3CCOCC3)c2c1`, the Potency was inconclusive [activator, single point]. In the case of `CSc1nsc(/C=C/Nc2ccc(C)c(C)c2)c1C#N`, the Potency is reported as active: 1.16 µM. In the case of `O=C(NCC1CCCO1)c1cc(S(=O)(=O)N2CCCCC2)ccc1Cl` (stereo unspecified), the Potency is reported as “inactive”. In the case of `CC(=O)c1c(N2CCN(c3ccc(F)cc3)CC2)nc(=S)n(Cc2ccccc2)c1C`, the Potency is reported as inconclusive [activator, single point]. With `O/N=C/c1ccc(OCc2ccccc2)c(Br)c1` the Potency was active: 25.9 µM. In the case of `O=C(COC(=O)CC(c1ccccc1)c1ccccc1)NCc1ccc(Cl)cc1`, the Potency is reported as inconclusive [activator, single point]. For `Nn1cnnc1N/N=C/c1cccc(Cl)c1Cl`, the Potency was inconclusive [activator, single point]. With `Cc1nnc(OCC(=O)NCCC2=CCCCC2)c2ccccc12` the Potency was active: 20.6 µM. For `O=CN1CCN(C(=O)c2ccc(-c3nc4ccccc4s3)s2)CC1`, the Potency was inconclusive [activator, single point]. With `O=C(OC(c1ccccc1)c1nccc2ccccc12)c1cc([N+](=O)[O-])cc([N+](=O)[O-])c1` (stereo unspecified) the Potency was inconclusive [activator, single point]. For `COc1ccc(C[C@H]2CN3C(=NC[C@@H]3C(C)C)N2CCNC(=O)c2ccc(C)c(Br)c2)cc1`, the Potency was “inactive”. With `Cc1cc(S(=O)(=O)/N=C(\N)c2ccc(C(N)=O)cc2)cc(C)c1F` the Potency was “inactive”. For `Cc1ccc([N+](=O)[O-])cc1-c1ccc(/C=C(\C#N)c2[nH]nc(N)c2C#N)o1`, the Potency was inconclusive [activator, full curve]. For `CC(=O)Oc1ccc(C)cc1`, the Potency was “inactive”. With `O=C(CCCOc1ccc(Cl)cc1Cl)N1CCc2ccccc2C1` the Potency was active: 3.26 µM. For `COc1ccc(NC(=O)C2CCCN(S(=O)(=O)c3c(C)n[nH]c3C)C2)cc1OC` (stereo unspecified), the Potency was active: 2.06 µM. For `CC(C)NC(=O)c1ccc(C2SCC(=O)N2Cc2ccccc2)cc1` (stereo unspecified), the Potency was active: 7.31 µM. For `C/C(=N\NC(=O)c1ccc(O)cc1)c1ccc2c(c1)Nc1ccccc1S2`, the Potency was inconclusive [activator, single point]. With `CCN1/C(=C/C(=O)c2ccco2)Sc2ccccc21` the Potency was inconclusive [activator, partial curve]. For `O=C(NCc1ccccc1)C1CCC(=O)N(CCCN2CCCC2=O)C1` (stereo unspecified), the Potency was “inactive”. In the case of `c1ccc(-c2cc3ccccc3cn2)cc1`, the Potency is reported as inconclusive [activator, partial curve, poor fit]. In the case of `CC(C)OC(=O)c1c(NC(=O)CCC(=O)O)sc2c1CCCCC2`, the Potency is reported as inconclusive [activator, single point]. In the case of `Cc1ccc(Cl)cc1OCC(=O)NCCOC(=O)Nc1sc(=S)n(C)c1C`, the Potency is reported as “inactive”. With `C[C@@H]1ON(C)[C@H]2C[C@H]3c4cc(-c5cccc(F)c5)ccc4CCN3C(=O)[C@@H]12` the Potency was “inactive”. In the case of `COc1ccc2c(-c3ccccc3)cc3nnnn3c2c1`, the Potency is reported as active: 2.59 µM. For `CCOc1cc(C2C(C#N)=C(N)OC3CCCC(=O)C32)ccc1OCCN1CCOCC1` (stereo unspecified), the Potency was inconclusive [activator, single point]. In the case of `COc1ccc(NC(=O)C2(c3ccccc3)CCCC2)cc1`, the Potency is reported as inconclusive [activator, full curve, poor fit]. In the case of `Cc1cccc(NC(=O)Cn2cc(C=O)c3ccccc32)c1`, the Potency is reported as inconclusive [activator, partial curve, poor fit]. With `c1ccc2[nH]c(SCc3ccc(-c4nnco4)cc3)nc2c1` the Potency was “inactive”. For `Cc1ccc(S(=O)(=O)CCC(=O)OCC(=O)NCC(=O)Nc2cccc(C)c2C)cc1`, the Potency was inconclusive [activator, single point]. For `COCCC(=O)N1CCC(Oc2ccc(C(=O)NCCCC3CCCC3)cc2)CC1`, the Potency was inconclusive [activator, single point]. For `O=C1CC(c2ccco2)CC2=C1C(c1ccccc1)n1nc(C(F)(F)F)nc1N2` (stereo unspecified), the Potency was inconclusive [activator, partial curve, poor fit].

— PubChem BioAssay AID624296 (National Center for Advancing Translational Sciences (NCATS), 2012)
Potency is the fitted concentration of half-maximal effect; tags give direction and shape of the fitted curve.
